# Reference: PubChem BioAssay AID463173 (ICCB-Longwood Screening Facility, Harvard Medical School, 2010)
# The whole screen tested about 52,000 compounds, of which about 4,300 (8.3%) were called active. Rule as the data show it: active = survival mostly below about 52% (no sharp cut-off); inactive = mostly above about 56%. The list shows a part of the results.
# System: DeltatarO mutant
# Test: S. aureus survival, RN4220 and DeltatarO strains – OD600, teichoic acid synthesis inhibitors, primary screen (AID 463173)
# Settings: S. aureus RN4220 wild type/DeltatarO growth, OD600, 18 h, stronger effect = lower value, screened at 18.75 µg/mL (by protocol)
row,SMILES,survival
1,COc1cc(C(CC(=O)Nc2cccc(C(C)=O)c2)N2Cc3ccccc3C2=O)cc(OC)c1OC (centres undefined),inactive: 67%
2,CCOC(=O)c1c(NC(=O)/C=C/c2ccc(C)cc2)sc(C(C)=O)c1C,inactive: 79%
3,O=C(COCc1cc(-c2ccc(F)cc2)on1)Nc1cc(Cl)ccc1O,inactive: 74%
4,COc1ccc(CCNC(=O)CCCn2c(=O)c3ccccc3n(Cc3ccccc3C#N)c2=O)cc1OC,active: 87%
5,Cc1ccccc1-n1nc(CO)c(C(=O)NCC(c2ccccc2)c2ccccc2)n1,inactive: 75%
6,COc1cccc2cc(-c3nc(Nc4cccc(C)c4C)sc3C)c(=O)oc12,inactive: 91%
7,Nc1nonc1C(=O)NCCNCc1ccccc1F,inactive: 56%
8,COc1ccccc1NC(=O)c1nn(C)c2c1CS(=O)(=O)c1ccccc1-2,inactive: 51%
9,CN(C)S(=O)(=O)c1ccc(C(=O)NCCSc2c(-c3ccc(Br)cc3)[nH]c3ccccc23)cc1,inactive: 74%
10,CCCCNC(=O)CC1Nc2cc(C)c(C)cc2NC1=O (centres undefined),inactive: 71%
11,COc1ccc(Cl)cc1NC(=O)Nc1c[nH]c(=O)[nH]c1=O,inactive: 78%
12,Cc1c(Cl)cccc1N1CCn2c1nc1c2c(=O)n(CC(=O)O)c(=O)n1C,inactive: 79%
13,O=C(NCCc1ccc(Cl)cc1)c1nnc(Cc2ccc(F)cc2)o1,inactive: 88%
14,O=C(CCSCc1ccc(Cl)cc1)NCCc1ccccc1,active: -5%
15,Cc1cccc(C)c1Nc1c(-c2ccc(N3CCOCC3)cc2)nc2ncccn12,inactive: 73%
16,CCn1c(SCC(=O)NC2CCCC2)nnc1C(C)C,inactive: 97%
17,CNC(=O)c1c(NC(=O)c2cc(=O)c3cc(C)c(C)cc3o2)sc2c1CCCC2,inactive: 54%
18,COc1ccccc1CNC(=O)Cn1c(-c2ccc(F)cc2)cc(C(C)=O)c1C,inactive: 88%
19,Cc1ccc(CSCCC(=O)N2CCN(c3ccc(F)cc3)CC2)cc1,inactive: 77%
20,O=C(Cn1nc(Cc2ccncc2)c2ccccc2c1=O)Nc1cccc(C(F)(F)F)c1,inactive: 71%
21,COc1ccc(N2CCN(C(=O)CN3CCSc4ccccc43)CC2)cc1,inactive: 83%
22,CCn1c(=O)cc(OCC(=O)N2CCN(c3ccc(C(C)=O)cc3)CC2)c2ccccc21,inactive: 87%
23,CCc1cccc2c(C#N)cn(CC(=O)NCCOC)c12,inactive: 103%

row,SMILES,survival
1,CC(=O)Nc1ccc(NC(=O)CN2C(=O)CC(c3ccco3)Sc3ccccc32)cc1 (centres undefined),inactive: 82%
2,Cc1ccc(-c2cc(C(F)(F)F)n3nc(-c4cccc(Br)c4)cc3n2)cc1,active: 46%
3,CCN1CCc2c(sc(NC(=O)c3ccc(S(=O)(=O)N(C)C4CCCCC4)cc3)c2C(N)=O)C1,inactive: 80%
4,N#CSC1CC(=O)N(c2ccc(F)cc2)C1=O (centres undefined),inactive: 81%
5,CC1Cc2cc(S(=O)(=O)CCC(=O)Nc3ccc(F)cc3)ccc2N1C(=O)C1CC1 (centres undefined),inactive: 101%
6,CSc1ccc(CNC(=O)Cn2c(-c3cccs3)cc3cc(F)ccc32)cc1,inactive: 101%
7,O=C(/C=C\c1ccc2c(c1)OCO2)NC1CC(=O)N(c2ccccc2)C1 (centres undefined),inactive: 134%
8,CC1CNc2ccccc2NC1=O (centres undefined),inactive: 85%
9,CCCCc1ccc(Nc2cc(C)nc(-n3nc(C)cc3C)n2)cc1,inactive: 79%
10,O=C(Nc1ccc(-c2nc3ccccc3o2)c(O)c1)c1cc(Cl)ccc1Cl,inactive: 50%
11,COc1cc(OC)cc(C(=O)Nc2ccc3nc4c(c(Nc5ccc(OC)c(OC)c5)c3c2)CCCC4)c1,inactive: 122%
12,O=C(NCC(c1cccnc1)N1CCc2ccccc2C1)C(=O)Nc1ccccc1F (centres undefined),inactive: 75%
13,CCN(C(=O)CCS(=O)(=O)c1ccc2c(c1)CCN2C(C)=O)c1cccc(C(F)(F)F)c1,inactive: 101%
14,Cc1ccc(/C=C/c2onc(C)c2S(=O)(=O)N2CCC(C(=O)Nc3ccc(OC(F)(F)F)cc3)CC2)cc1,inactive: 125%
15,COC(=O)c1ccc(NC(=O)Cn2ccn3nc(-c4ccc(OC)cc4)cc3c2=O)cc1,inactive: 94%
16,Cc1ccc(CNC(=O)CCc2c(C)nc3c(-c4ccc(F)cc4)c(C)nn3c2C)cc1,inactive: 83%
17,CCCN(CCC)C(=O)Cn1c(=O)n(CCCCCC(=O)Nc2ccccc2)c(=O)c2sccc21,inactive: 71%
18,COc1ccc2c(c1)c1c(c(=O)n(-c3ccccc3C)c(=O)n1CC(N)=O)n2C,inactive: 89%
19,Cc1nnc(C)n1/N=C/C=C/c1ccccc1,inactive: 62%
20,CCc1ccc2[nH]c(=O)c(CN(Cc3ccco3)C(=O)Nc3ccccc3)cc2c1,inactive: 45%
21,Cc1cccc(OCC(=O)Nc2cccc(C(=O)OCc3cc(=O)n4nc(C(C)C)sc4n3)c2)c1,inactive: 89%
22,Cc1ccc(S(=O)(=O)Nc2cc3c(C(=O)OCc4ccccc4)c(C)oc3c3ccccc23)c(C)c1,inactive: 56%
23,COc1cc(C(=O)N2CCNC(=O)C2CC(=O)Nc2ccc(C)c(C)c2)cc(OC)c1OC (centres undefined),inactive: 92%

row,SMILES,survival
1,Clc1cccc(CNNc2nc(N3CCCCC3)nc(N3CCCCC3)n2)c1,inactive: 98%
2,CCCCNc1nc2c(-c3cccc(C)c3)nnn2c2ccccc12,inactive: 98%
3,Cc1ccc(S(=O)(=O)C(CNC(=O)COc2ccccc2)c2cccs2)cc1 (centres undefined),inactive: 67%
4,COC(=O)C1=C(C)NC(=O)NC1c1cn(-c2ccccc2)nc1-c1ccc(OC)c(Br)c1 (centres undefined),inactive: 53%
5,CCCn1c(COc2cccc(C)c2)nc2ccccc21,active: 12%
6,O=c1oc2cc(O)ccc2cc1-c1nc(-c2ccc(Cl)c(Cl)c2)cs1,inactive: 101%
7,COc1cccc(-n2c(SCC(=O)c3ccccc3)nc3c([nH]c4ccccc43)c2=O)c1,inactive: 124%
8,CCc1sc(Nc2cccc(Cl)c2)nc1-c1cc2cccc(OC)c2oc1=O,inactive: 90%
9,O=C(/C=C/c1cccs1)NC1CCS(=O)(=O)C1 (centres undefined),inactive: 91%
10,Cc1c(C(=O)OCc2ccccc2)[nH]c2c1C(=O)CC(c1ccc(N(C)C)cc1)C2 (centres undefined),inactive: 82%
11,Cc1nn2c3c(cnc2c1-c1ccc(Cl)cc1)C(=O)CC(c1ccc(C(C)C)cc1)C3 (centres undefined),inactive: 85%
12,COc1ccc(NC(=O)CN2C(=O)C(C)(C)c3cc(S(=O)(=O)N4CCCCC4)ccc32)cc1Cl,inactive: 76%
13,Cc1ccc(C2=CC(c3ccccc3C)n3c(nc4ccccc43)N2)cc1 (centres undefined),inactive: 79%
14,CCc1ccc(NC(=O)C(=O)NCCc2csc(-c3cccc(F)c3)n2)cc1,inactive: 83%
15,CCOc1ccc(NC(=O)CSc2oc(-c3cccs3)nc2S(=O)(=O)c2ccc(C)cc2)cc1,inactive: 125%
16,CCn1nc(C)c2c(-c3ccccc3)cc(=O)n(C(C)C(=O)Nc3cccc(F)c3)c21 (centres undefined),inactive: 91%
17,Cc1nn(-c2ccc(N3CCOCC3)nn2)c(C)c1CCC(=O)NCc1ccccc1,inactive: 68%
18,COC(=O)C1CC(C)=CC(C)C1C(=O)O (centres undefined),inactive: 67%
19,Cc1cc(C)c(NC(=O)CSc2n[nH]c(-c3ccccc3Cl)n2)c(C)c1,inactive: 72%
20,Cc1ccn2c(Nc3ccccc3C)c(-c3ccc(N4CCOCC4)cc3)nc2c1,inactive: 89%
21,C=CCC1Cc2ccccc2C(CC=C)N1 (centres undefined),inactive: 94%
22,O=C(COc1ccc(Cl)cc1)NCC(c1ccco1)S(=O)(=O)c1ccccc1 (centres undefined),inactive: 77%
23,COc1ccccc1NC(=O)c1sc2nc3c(c(C(F)(F)F)c2c1N)CN(C(C)=O)CC3,inactive: 63%

row,SMILES,survival
1,Cc1ccccc1CCNC(=O)c1ccc(NC(=O)N2CC(C)Sc3ccccc32)cc1 (centres undefined),inactive: 67%
2,COc1ccc(NC(=O)c2cnc(Nc3ccc(C)c(Cl)c3)c3ccccc23)c(OC)c1,inactive: 63%
3,Cc1cc2ncn(S(=O)(=O)c3ccc(S(=O)(=O)NC4CCCCC4)cc3)c2cc1C,inactive: 99%
4,COc1ccc(CNc2nc(-c3ccc(OC)cc3)cc(C(F)(F)F)n2)cc1,active: -2%
5,CCCC(=O)N1CCc2cc(OC)c(OC)cc2C1COc1ccc2c(C)cc(=O)oc2c1 (centres undefined),inactive: 66%
6,COc1ccc2c(c1)CC(C(=O)NCCN1CCN(c3ccccc3F)CC1)CO2 (centres undefined),active: 47%
7,CCOc1ccc(NC(=O)Cn2cc(C(=O)c3ccc(CC)cc3)c(=O)c3cc4c(cc32)OCO4)cc1,inactive: 86%
8,Cc1ccc(Cl)cc1N1CCN(C(=O)c2cnn(C(C)(C)C)c2C2CCN(C(=O)OC(C)(C)C)CC2)CC1,inactive: 101%
9,CCCSc1ncc(Cl)c(C(=O)Nc2ccc(S(=O)(=O)N3CCC(C)CC3)cc2)n1,inactive: 52%
10,COc1ccc(N2CCN(C(=O)C3CCN(Cc4nc(-c5ccc(Cl)cc5)oc4C)CC3)CC2)cc1,inactive: 81%
11,CN(C)CCNC(=O)CN1N=C(c2ccccc2)CCC1=O,inactive: 134%
12,C=C(C)Cn1c(=O)c2c(nc3n2CCN3c2cc(C)cc(C)c2)n(C)c1=O,inactive: 81%
13,COc1cc(C2C(=O)N(C3CCCCCC3)CC(=O)N2Cc2ccccc2)ccc1OC(C)C (centres undefined),inactive: 88%
14,O=C(O)c1noc2c1CCCC2,inactive: 91%
15,COC(=O)c1ccc(NC(=O)CN(Cc2ccccc2)S(=O)(=O)c2ccc(C)cc2)cc1,active: 42%
16,CCN(C(=O)CSc1nc2ccccc2n1Cc1ccc(C(=O)OC)cc1)c1ccccc1,inactive: 92%
17,Cc1ccc2oc(=O)c(S(=O)(=O)c3ccc(F)cc3)cc2c1,inactive: 96%
18,COc1ccc(NC(=O)c2ccco2)cc1NC(=O)c1ccc(C)c(C)c1,active: 49%
19,COc1ccc(CCN2C(=O)NC(NC(=O)c3ccccc3OC)(C(F)(F)F)C2=O)cc1OC (centres undefined),inactive: 77%
20,CCC(Sc1ncc(S(=O)(=O)c2ccc(C)cc2)c(=O)[nH]1)C(=O)Nc1cc(C)ccc1C (centres undefined),inactive: 120%
